Assay results: patent US20160040149A1, “Compositions Having Dicamba Decarboxylase Activity and Methods of Use” (priority 2013, published 2016)

B1: 66 (protein, listed as Amphimedon queenslandica)
chain: MASGIKVDIHNHILPERWPDLKERYGYGGWIQLHHHCQGKARMLKDGQLFRVVDENCWSPEARIKDMDNTGVTVQALSTVPVMFSYWAKPEDTLDLCKILNNDLAQTVAKFPKRFVGLGTLPMQAPELAVQELKRCIKELGFPGVQIGSHVNEWNLDATELQCVFAAAEELNAAVFVHPWDMETGGRMSKYWLPWLVGMPAETATAICSVLFGGVLERHPNLKICFAHGGGSFPYTIGRIEHGFNVRPDLCATENSVNPRSYIGKVYTDSLVHDQKALKFLVDIIGEDRVVLGSDYPFPLGEHFPGKLIESIEEWDTSLKDKLLSKNAFEFLGLDPSQYET
B2: 67 (protein, listed as Amblyomma maculatum)
chain: MASSFSAAANLKIDLHAHVTPDRWPNLRERYGYGGWLDIKHESDKTAVMSYDDGRFFRRIESNCWNIDERIADMDRTGVTVQALSTTPVLFSYWAKPEDALDFSRLQNDFVASLVNRRPDRFVGMCTVPMQSPQLAAEELKRCVSQLGFRAVIVGSHINEWTLADRALDPFYRTVKELGVSIFVHPWDMPPSTRYNKYWLQWLVGMPAETTAAICEVIFGGLLERFPRLKLCFAHGAGSFPYTVGRIQHGFDVRPDLCAVDNKIPPKGYLGEIYADSLVHNRGSLRLLLDTLGEDRVMLGSDYPYPLGEIDRPGRLIETSGLQNSVKEKLLWKKCCELPRN
B3: 65 (protein, listed as Ailuropoda melanoleuca)
chain: MAKIDVHSHILPKEWPDLKKRFGYGGWVQLQHHNKGEAKMMKDGKVFRVVQENCWDPEVRIREMDQTGVTVQALSTVPVMFSYWAKPQDTLDLCQLLNNDLAATVANHPRRFVGLGTLPMQAPELAVKEMERCVKELGFPGVQIGSHINEWDLNAKELFPVYAVAEKLNCSLFVHPWDMQMDGRMAKYWLPWLVGMPAETTTAICSMIMGGVFEKFPKLKVCFAHGGGAFPFTVGRISHGFNMRPDLCAQDNPINPKKYLGSFYTDSLVHDPLALKLLTDVIGKDKVILGTDYPFPLGELEPGKLIESMEEFEEETKDKLKAGNALAFLGLERKQFE

Assay: Saturation mutagenesis of SEQ ID NO:109: dicamba decarboxylation activity of point mutants (CO2 released), fold of backbone (Tables 7, 8, Megatable 1)
Conditions: decarboxylation activity (CO2 released) of point mutant vs unmutated backbone protein; backbone SEQ ID NO: 109
For B1, the “Fold Activity” value was 1.6 fold. For B2, the “Fold Activity” value was 1.3 fold. For B3, the “Fold Activity” value was 1.7 fold.
